Test results as given in article PMC10167072, “Human granzyme B binds Plasmodium falciparum Hsp70-x and mediates antiplasmodial activity in vitro” (Cell Stress & Chaperones, 2023).

Legend:
Settings in all cases: both partners purified
human Hsp70 [1] = molecular target: T1, human Hsp70 (human, UniProt P0DMV8-1); assay: SPR; Hsp70 immobilised (100 µg/mL) on CMD 3D 500L chip, GrB analyte 0-2000 nM, 25 °C, PBS-Tween 20 with 20 mM EDTA pH 7.4, 25 μL/min, 1:1 Langmuir global fit; with ADP
T1 construct: human Hsp70, NP_005336.3 (pQE30/hHsp70); also called hHsp70; Hhsp70; source: E. coli BL21, purified (Ni-NTA)

human Hsp70 [2] = molecular target: T1, human Hsp70; assay: SPR; Hsp70 immobilised (100 µg/mL) on CMD 3D 500L chip, GrB analyte 0-2000 nM, 25 °C, PBS-Tween 20 with 20 mM EDTA pH 7.4, 25 μL/min, 1:1 Langmuir global fit; with ATP
T1 sequence (P0DMV8 whole entry): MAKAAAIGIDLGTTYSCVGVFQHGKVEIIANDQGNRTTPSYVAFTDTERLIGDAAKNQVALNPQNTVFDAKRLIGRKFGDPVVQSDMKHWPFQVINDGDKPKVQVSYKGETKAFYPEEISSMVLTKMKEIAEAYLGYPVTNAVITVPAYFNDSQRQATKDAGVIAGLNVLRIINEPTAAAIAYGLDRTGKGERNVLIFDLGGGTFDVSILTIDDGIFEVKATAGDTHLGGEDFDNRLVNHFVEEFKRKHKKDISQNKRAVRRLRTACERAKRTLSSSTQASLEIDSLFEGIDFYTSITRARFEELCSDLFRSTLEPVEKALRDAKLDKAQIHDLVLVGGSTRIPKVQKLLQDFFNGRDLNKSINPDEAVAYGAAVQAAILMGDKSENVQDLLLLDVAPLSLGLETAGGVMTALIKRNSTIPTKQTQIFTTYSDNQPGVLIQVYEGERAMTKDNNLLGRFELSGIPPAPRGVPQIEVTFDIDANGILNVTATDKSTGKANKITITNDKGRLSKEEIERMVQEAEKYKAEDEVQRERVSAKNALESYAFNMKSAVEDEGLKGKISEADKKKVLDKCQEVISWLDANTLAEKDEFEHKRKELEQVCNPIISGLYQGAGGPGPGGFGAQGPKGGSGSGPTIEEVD

human Hsp70 [3] = molecular target: T1, human Hsp70; assay: SPR; Hsp70 immobilised (100 µg/mL) on CMD 3D 500L chip, GrB analyte 0-2000 nM, 25 °C, PBS-Tween 20 with 20 mM EDTA pH 7.4, 25 μL/min, 1:1 Langmuir global fit; no nucleotide

B1: human granzyme B (enzyme)
chain: not shown
notes: granzyme B, human, serine protease; Bought protein; also called GrB; human GrB; source: bought: Hölzel Diagnostics, Cologne, Germany
Binder B1 has a Kd (human Hsp70 [1]) of 5.61 µM, a koff (human Hsp70 [1]) of 0.00121 s⁻¹ and a kon (human Hsp70 [1]) of 1620 M⁻¹ s⁻¹. The Kd (human Hsp70 [2]) was 200 nM, the koff (human Hsp70 [2]) was 0.000898 s⁻¹ and the kon (human Hsp70 [2]) was 3950 M⁻¹ s⁻¹. It also gave a Kd (human Hsp70 [3]) of 1530 nM, a koff (human Hsp70 [3]) of 0.000989 s⁻¹ and a kon (human Hsp70 [3]) of 2370 M⁻¹ s⁻¹.
